# About 50,000 (12%) of roughly 420,000 compounds were called active. The inconclusive results got no clear call from the source; some entries with a clear call stand among them for comparison. The call rests on the fitted dose curve; in most records, active means well fitted inhibition curve with a large enough effect; inconclusive means small, poorly fitted or top-dose-only effect; inactive means flat fitted curve, though single readings scatter. Potencies of inconclusive entries are left out as doubtful fits.
# Experiment: qHTS for Inhibitors of human tyrosyl-DNA phosphodiesterase 1 (TDP1): qHTS in cells in presence of CPT; further: nearly all actives have a fitted effect of over 55% in size
# Conditions: chicken DT40 Tdp1-/-;hTDP1 cells + 20 nM CPT, ATP luminescence, 48 h; activity change, negative = growth inhibition: at 46.2 µM (top of the series) unless noted
# Method in brief: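 Cell growth measured by CellTiter-Glo luminescence after a minimum 48 h, 37 C compound exposure with 20 nM CPT in Tdp1-knockout DT40 cells stably expressing hTDP1, seeded 400/well; qHTS titration format.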
# On the % scale 0 is the no-effect control and ±100 the full control effect; potency means the concentration at half of the fitted maximal effect; tags describe the fitted curve by direction and shape.
Compound,Potency,"activity change, negative = growth inhibition"
N#CCCN(C(=O)COC(=O)CCc1c[nH]c2ccccc12)c1ccc(F)cc1,"inconclusive [inhibitor, single point]",
C=CCNCCOc1ccc(C(C)(C)c2ccccc2)cc1,"inconclusive [inhibitor, single point]",
O=C(CCCN1C(=O)/C(=C\c2cccs2)SC1=S)NNC(=O)c1cccnc1,,inactive: -17.8%
COc1ccc(-n2nnnc2SCC(=O)Nc2ccccc2N2CCOCC2)cc1OC,,inactive: -24%
Cc1nc2c(-c3ccccc3)c(C)nn2c(C)c1CCC(=O)NCc1ccccc1Cl,,inactive: -20.6%
Cc1cccc(N2CCN(C(c3ccccc3)c3nnnn3C(C)(C)C)CC2)c1C (stereo not given),"inconclusive [inhibitor, single point]",
Cc1ccc(NC(=O)COC(=O)CCc2ccc(S(=O)(=O)N3CCOCC3)cc2)cc1F,,inactive: 0.282%
COC(=O)CNC(c1ccccc1)c1cc(Br)ccc1NC(=O)CNC(=O)OCc1ccccc1 (stereo not given),,inactive: -10.3%
Cn1c(-c2ccccc2)cnc1NCc1ccc(-c2ccccc2)cc1,active: 25.9 µM,
C[C@@H]1CN([C@H](C)CO)C(=O)c2cc(NC(=O)Cc3cn(C)c4ccccc34)ccc2O[C@H]1CN(C)C(=O)Nc1ccc2c(c1)OCO2,"inconclusive [inhibitor, single point]",
O=C(O)C1Nc2c(O)cccc2C2C=CCC12 (stereo not given),"inconclusive [inhibitor, single point]",
CCOC(=O)c1cnc2ccc(C)cc2c1N(C)Cc1ccccc1,"inconclusive [inhibitor, single point]",
Clc1ccc(-c2nnc(CSc3nnc(-c4cccs4)o3)o2)cc1,,inactive: 4.63%
O=C(NC1CCCCC1)c1ccccc1NC(=O)C1CC(=O)N(c2ccccc2)C1 (stereo not given),,inactive: -28.3%
CC(C)(C)c1nnc(NC(=S)Nc2ccccc2)s1,"inconclusive [inhibitor, single point]",
CCN(CC)CCNC(=O)CSc1c2c(nc3cc(Cl)ccc13)CCCC2,"inconclusive [inhibitor, single point]",
CCN1CCN(C(=O)c2ccc3c(c2)N(Cc2ccc(C)cc2)CCS3)CC1,active: 20.6 µM,
CCc1ccc(NC(=S)N2CCC(NC(=O)c3ccccc3OC)CC2)cc1,,inactive: -4.22%
COc1ccc(-c2cc(C(=O)NCc3ccco3)c3ccccc3n2)cc1,"inconclusive [inhibitor, single point]",
CC(=O)c1ccc(C(=O)NC2CCCN(Cc3ccc(Cl)cc3)C2)s1 (stereo not given),"inconclusive [inhibitor, single point]",
